The values that follow come from PubChem BioAssay AID1347073 (National Center for Advancing Translational Sciences (NCATS), 2019).

The structures appear in SMILES notation. The whole screen tested about 45,000 compounds, of which about 200 (0.44%) were called active. Roughly 7% stayed inconclusive and do not appear here. Calls follow the shape of the dose curve; as a rule, active = well fitted activation curve with a large enough effect; inconclusive = small, poorly fitted or top-dose-only effect; inactive = no such curve, though single readings can be large or run the other way. This is one part of the list.

The assay in a line: qHTS of TDP-43 Inhibitors: NCGC Sytravon Library Screen. Also: 0% is about no effect; nearly all actives have a fitted effect of over 55% in size. The settings on record: yeast TDP-43 toxicity rescue, BacTiter-Glo growth, 24 h; series mostly up to 46.1 µM; growth rescue (activation): at the top concentration. Summed up:
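TDP-43-expressing yeast, pregrown in raffinose, seeded at OD600 0.02 in galactose medium with compound for 24 hr at 30 deg C. Growth read by BacTiter-Glo luminescence, so rescue of toxicity appears as activation.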
Background: qHTS replaces the single test concentration by a dilution series.
`Cc1cc(C)nc(NS(=O)(=O)c2ccc(NC(=O)C3COc4ccccc4O3)cc2)n1` (stereo unspecified): the “growth rescue (activation)” value is inactive: -15.8%.

In the case of `O=c1c(-c2ccc(Cl)cc2)[n+]([O-])c2ccccc2n1OCc1nc2ccccc2[nH]1`, the “growth rescue (activation)” value was inactive: -4.37%.

With `CCNC(=O)Cn1c(=O)c(=O)n(Cc2ccccc2)c2ccc(Cl)cc21`, the “growth rescue (activation)” value was inactive: 6.5%.

Consider `CC(=O)Nc1cc(-c2ccc(C(=O)NC3CC3)cc2)cn2c(-c3cccc(C(C)=O)c3)cnc12`, for which the “growth rescue (activation)” value is inactive: 6.72%.

Turning to `Cc1sc(-c2ccncc2)nc1OC(=O)c1cc(Cl)cc(Cl)c1`, the “growth rescue (activation)” value is inactive: 13.9%.

On to `CC(C)C(=O)N1CCC1(C)C(=O)Nc1cc(-c2ccccc2)nn1C` (stereo unspecified), for which the “growth rescue (activation)” value was inactive: -3.87%.

In the case of `Cc1cccc(N2CCN(C(=O)NC(C)c3ccc(F)c(F)c3)CC2)c1C` (stereo unspecified), the “growth rescue (activation)” value is inactive: 21.1%.

As for `COCc1c(C(=O)OCC(=O)NCCN2C(=O)CSC2=O)oc2ccccc12`, the “growth rescue (activation)” value was inactive: 3.27%.

`CN(CCOc1ccccc1)C(=O)c1ccc(N2CCCC2)c([N+](=O)[O-])c1`: the “growth rescue (activation)” value was inactive: -6.04%.

With `O=C(N/N=C/c1cnc(N2CCCCC2)s1)c1ccc(Cl)cc1`, the “growth rescue (activation)” value was inactive: 7.98%.

`O=C(CCCn1c(=O)c2sccc2n(Cc2ccc(F)cc2Cl)c1=O)NCc1ccc2c(c1)OCO2`: the “growth rescue (activation)” value was inactive: 12.5%.

For `Cc1csc(NC(=O)c2cc3c(C)nn(Cc4ccccc4Cl)c3s2)n1`, the “growth rescue (activation)” value was inactive: 3.33%.

With `CSc1c(CC(=O)Nc2ccccc2)n(Cc2ccccc2)c2ccccc12`, the “growth rescue (activation)” value was inactive: 7.18%.

As to `CC1CCN(Cc2nnc(-c3cccc(Br)c3)o2)CC1`, the “growth rescue (activation)” value is inactive: -1.16%.

Take `Brc1c(-c2ccc3c(c2)OCO3)nc2ncccn12`: the “growth rescue (activation)” value was inactive: 24.3%.

For `CC(C)COC(=O)c1ccc(N2C(=O)c3ccccc3C2=O)cc1`, the “growth rescue (activation)” value is inactive: 2.23%.

Consider `Cn1c(=O)n(Cc2ccco2)c(=N)c2c3c(sc21)CCCC3`, for which the “growth rescue (activation)” value was inactive: -2.14%.

In the case of `Cc1c(C#N)c(N)nc2c3c(sc12)NC(=O)CC3c1ccc(Cl)cc1` (stereo unspecified), the “growth rescue (activation)” value was inactive: 9.06%.

For `COc1ccc(-c2cc(C(=O)OCc3ccccn3)c3ccccc3n2)cc1`, the “growth rescue (activation)” value is inactive: 13.4%.

As to `O=C(c1ccc(NS(=O)(=O)c2cccs2)cc1)N1CCN(c2ccccc2Cl)CC1`, the “growth rescue (activation)” value was inactive: 3.06%.

As for `COc1ccc(NC(=O)CS(=O)CC(=O)Nc2ccc(F)cc2F)cc1` (stereo unspecified), the “growth rescue (activation)” value was inactive: 4.32%.

Turning to `Cc1cccc(C(=O)Nc2ccc(C(=O)N/N=C/c3ccc(C)o3)cc2)c1`, the “growth rescue (activation)” value was inactive: 0.218%.

Turning to `COc1ccc(N(CC(O)CN2CCOCC2)S(=O)(=O)c2ccc(C)cc2)cc1` (stereo unspecified), the “growth rescue (activation)” value was inactive: -11.3%.

On to `COc1cc(/C=C2/NC(=O)NC2=O)cc(Br)c1OCc1ccccc1`, for which the “growth rescue (activation)” value is inactive: -11.6%.

As for `Nc1nc(C23CC4CC(CC(Cl)(C4)C2)C3)cs1`, the “growth rescue (activation)” value is inactive: 8.59%.

On to `Cc1ccnc(N2CCCC(C(=O)Nc3cccc(C)c3C)C2)n1` (stereo unspecified), for which the “growth rescue (activation)” value was inactive: 6.77%.

With `Cc1ccc(NCc2cccn2-c2nnc(N3CCC(C(=O)NCCc4ccccc4)CC3)s2)cc1`, the “growth rescue (activation)” value is inactive: -11.5%.

For `N/C(Cn1cncn1)=N\NC(=O)C(=O)Nc1cccc(C(F)(F)F)c1`, the “growth rescue (activation)” value was inactive: 10.7%.

As for `COc1ccc(C)cc1NC(=O)c1nc2nc(C)cc(C)n2n1`, the “growth rescue (activation)” value was inactive: 26.3%.

In the case of `CCc1ccccc1NC(=O)c1cccc(Oc2ccc([N+](=O)[O-])cc2Cl)c1`, the “growth rescue (activation)” value is inactive: 7.99%.

With `CCOC(=O)C1(CCc2ccccc2)CCN(Cc2ccn[nH]2)CC1`, the “growth rescue (activation)” value was inactive: 4.88%.

Regarding `O=C1CC(c2ccc(F)cc2)Sc2nc(-c3ccccc3)c(-c3ccccc3)n21` (stereo unspecified), the “growth rescue (activation)” value is inactive: -6.02%.

Consider `COc1cccc(CNC(=O)CCC2CCCN(C(=O)CCc3c(C)noc3C)C2)c1` (stereo unspecified), for which the “growth rescue (activation)” value was inactive: 0.363%.

As to `CC1(Cc2ccccc2C#N)C(=O)Nc2ccc(-c3ccccc3)cc21` (stereo unspecified), the “growth rescue (activation)” value was inactive: 16.1%.

As for `CCOc1ccc(NS(=O)(=O)c2cc(NC(=O)c3ccc(C)cc3)ccc2Cl)cc1`, the “growth rescue (activation)” value was inactive: 11.2%.

As to `CS(=O)(=O)N(CCc1ccccc1)CC(=O)NCc1ccccc1`, the “growth rescue (activation)” value was inactive: -13.6%.

On to `O=c1cnnc(Nc2cccc(C(F)(F)F)c2)[nH]1`, for which the “growth rescue (activation)” value is inactive: 5.35%.

For `Cc1ccc(C2=Nc3ccccc3N=C(c3ccc([N+](=O)[O-])cc3)C2)c(O)c1`, the “growth rescue (activation)” value is inactive: 4.95%.

In the case of `COc1ccccc1C(C#N)N1N=C(C)CC1(C)C` (stereo unspecified), the “growth rescue (activation)” value is inactive: 3.29%.

On to `COc1ccc(C2C(C(=O)c3ccco3)=C(O)C(=O)N2CC2CCCO2)c(OC)c1` (stereo unspecified), for which the “growth rescue (activation)” value is inactive: -5.56%.

As for `COc1ccc(NS(=O)(=O)c2ccc(NS(=O)(=O)c3cccs3)cc2)c(OC)c1`, the “growth rescue (activation)” value was inactive: 7.7%.

Regarding `O=[N+]([O-])c1cccc(/C=N/N2CCN(Cc3ccc(Cl)cc3)CC2)c1`, the “growth rescue (activation)” value was inactive: 3.89%.

For the compound `COc1ccccc1C(=O)NC1CCN(C(=O)Nc2ccc(C)cc2)CC1`, the “growth rescue (activation)” value was inactive: 7.6%.

As for `CCn1c(SCC(=O)N2CCc3ccccc3C2)nc2sc(C)c(C)c2c1=O`, the “growth rescue (activation)” value is inactive: 2.91%.

Consider `Cc1c(C(=O)Oc2ccc(F)cc2)sc2ncn(Cc3cccc(F)c3)c(=O)c12`, for which the “growth rescue (activation)” value is inactive: 8.89%.

`CC(C)(C)NC(=O)C1CC(=O)OC12CCCCC2` (stereo unspecified): the “growth rescue (activation)” value is inactive: 8.25%.

As to `CC(=O)Nc1ccc(NC(=O)C2(C)Cc3c(-c4cccc(C(F)(F)F)c4)ccnc3O2)cc1` (stereo unspecified), the “growth rescue (activation)” value is inactive: 8.8%.

Regarding `C=CCOc1cccn2c(N(C)C(=O)c3ccc(OC)cc3)c(CC)nc12`, the “growth rescue (activation)” value was inactive: 4.1%.

As for `COc1ccc2c(c1)c(C(=O)N/N=C/c1ccc(Cl)cc1)c(C)n2C`, the “growth rescue (activation)” value was inactive: -0.612%.

Regarding `Cc1cc(C(=O)NNC(=O)c2ccc(Cl)c(S(N)(=O)=O)c2)c(C)o1`, the “growth rescue (activation)” value is inactive: 10.5%.

As for `COc1ccc(CCNC(=O)CSc2nc(C)cs2)cc1`, the “growth rescue (activation)” value is inactive: -2.7%.

Take `CCOc1ccc(NC(=O)NCc2cccn2C)cc1`: the “growth rescue (activation)” value is inactive: -10%.

With `O=C(COC(=O)CCC(=O)c1cccs1)NCc1cccs1`, the “growth rescue (activation)” value is inactive: 8.96%.

As to `CCOC(=O)C1(C)CCN1C(=O)c1cccc(C#N)c1` (stereo unspecified), the “growth rescue (activation)” value was inactive: -5.44%.

On to `CCOC(=O)c1sc(NC(=O)c2ccc(Br)o2)cc1C`, for which the “growth rescue (activation)” value is inactive: 26.2%.

Consider `CCCn1c(CCl)nc2cc(S(=O)(=O)N3CCOCC3)ccc21`, for which the “growth rescue (activation)” value is inactive: -1.6%.

Turning to `CCOC(=O)N1CCN(C(=O)c2c(-c3ccccc3Cl)noc2C)CC1`, the “growth rescue (activation)” value is inactive: -12.8%.

With `CN(C)C(CNC(=O)C1CCN(S(=O)(=O)c2cccc(C(F)(F)F)c2)CC1)c1ccccc1` (stereo unspecified), the “growth rescue (activation)” value was inactive: -0.659%.

`CCOC(=O)C1(C)CCCN(C(=O)c2ccc(OC)cc2)C1` (stereo unspecified): the “growth rescue (activation)” value is inactive: 1.97%.

Turning to `COc1ccc(-c2cc(CNS(=O)(=O)c3ccc(F)cc3)on2)cc1`, the “growth rescue (activation)” value is inactive: 19.3%.

Turning to `O=C(O)c1ccc(CN2C[C@@H](CO)O[C@@H](n3cnc4c(N5CCOCC5)ncnc43)C2)cc1`, the “growth rescue (activation)” value is inactive: -3.35%.

`CCOc1cccc(C2NC(=S)NC(C)=C2C(=O)Nc2ccccc2)c1` (stereo unspecified): the “growth rescue (activation)” value is inactive: 18.6%.

In the case of `O=C(COc1cccc2cccnc12)N/N=C/c1ccccc1O`, the “growth rescue (activation)” value is inactive: 13.3%.

`CCn1nc(C)c(CN2CCc3c([nH]c4ccccc34)C2c2ccc(F)c(OC)c2)c1C` (stereo unspecified): the “growth rescue (activation)” value was inactive: 14.7%.

As to `CCn1c(SCC(=O)c2ccccc2)nc2sc3c(c2c1=O)CCN(C)C3`, the “growth rescue (activation)” value is inactive: 6.07%.

`COC(=O)c1ccc(/C=N/NC(=O)C2CC(=O)N(c3ccc(OC)cc3)C2)cc1` (stereo unspecified): the “growth rescue (activation)” value was inactive: -3.28%.
